Assay results published in the supplement of paper PMC11348887.
Where a name gives a salt, the structure may show the parent alone. The list shows a part of the results. Cut-off read from the data, not from the text of the source: active = -2 or less and inactive = the rest. Most values come without repeats; read them as rough.

Test system: hPSC-derived cortical neurons (WA09)
Assay: nuclei number (viability) z-score; higher = more surviving cells
Conditions: 5 µM; treatment: days 7-14 after plating, readout day 21
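Note: nuclei counted from DAPI counterstain by automated high-content image analysis, four fields per well at ×20 in 384-well plates, with sequential b-score then z-score normalization.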

Structure (SMILES)	nuclei number (z-score)
O=[N+]([O-])c1cn2c(n1)OC[C@@H](OCc1ccc(OC(F)(F)F)cc1)C2	inactive: 0.444
Cn1nnc2c(C(N)=O)ncn2c1=O [Temozolomide]	inactive: 0.0117
COc1ccc(CCC(=O)Nc2nc3ccc(Cl)cc3s2)cc1OC	inactive: 0.0976
C=C1C(=O)O[C@H]2[C@H]1CC/C(C)=C/CC[C@@]1(C)O[C@@H]21 [(-)-Parthenolide]	inactive: -0.55
CCCCOc1ccc(C(=O)CCN2CCCCC2)cc1 [Dyclonine HCl]	inactive: 0.52
CC(=O)OCC(=O)[C@@]1(O)CC[C@H]2[C@@H]3CCC4=CC(=O)C=C[C@]4(C)[C@H]3[C@@H](O)C[C@@]21C [Prednisolone Acetate]	inactive: 0.559
COc1ccc(CNc2nc(N3CCC[C@H]3CO)ncc2C(=O)NCc2ncccn2)cc1Cl [Avanafil]	inactive: -0.764
COC(=O)N[C@H](C(=O)N1CC2(CC2)C[C@H]1c1nc(-c2ccc3c(c2)C(F)(F)c2cc(-c4ccc5[nH]c([C@@H]6[C@H]7CC[C@H](C7)N6C(=O)[C@@H](NC(=O)OC)C(C)C)nc5c4)ccc2-3)c[nH]1)C(C)C [Ledipasvir (GS5885)]	inactive: 0.944
CN1CCN(C(=O)c2cc3cc(Cl)ccc3[nH]2)CC1	inactive: -0.225
OC[C@@H](O)CN1CCN(c2ccccc2)CC1 [Levodropropizine]	inactive: 0.17
N#CC1(c2ccc(NC(=O)c3cccnc3NCc3ccncc3)cc2)CCCC1 [Apatinib]	inactive: -0.209
CC(ONC(=O)c1cc(C(F)(F)F)cc(C(F)(F)F)c1)C(=O)Nc1ccc(Cl)cc1 (centres undefined)	inactive: -0.128
CC[C@H](c1ccc(O)cc1)[C@@H](CC)c1ccc(O)cc1 [Hexestrol]	inactive: 1.91
Cc1c(Nc2ncccc2C(=O)O)cccc1C(F)(F)F [Flunixin Meglumin]	inactive: -0.858
NCCc1ccc(O)c(O)c1 [Dopamine HCl]	inactive: -0.334
Cn1cnc2c(F)c(Nc3ccc(Br)cc3Cl)c(C(=O)NOCCO)cc21 [Selumetinib (AZD6244)]	inactive: 0.217
Nc1nc(N)c2nc(-c3cccc(O)c3)c(-c3cccc(O)c3)nc2n1	inactive: 0.155
C[C@H](CS)C(=O)N1CCC[C@H]1C(=O)O [Captopril]	inactive: -0.14
CCOC(=O)c1c2c3c(cccc3[nH]c1=O)C(=O)c1ccccc1-2	inactive: -1.46
CN(Cc1cc(Br)cc(Br)c1N)C1CCCCC1 [Bromhexine HCl]	inactive: -0.595
FC(F)(F)Oc1ccc2nc(-c3ccc(OCCOCCOc4ccc(-c5nc6ccc(OC(F)(F)F)cc6[nH]5)nc4)cn3)[nH]c2c1	inactive: -1.65
C=CCNC1=C2C[C@@H](C)C[C@H](OC)[C@H](O)[C@@H](C)/C=C(\C)[C@H](OC(N)=O)[C@@H](OC)/C=C\C=C(/C)C(=O)NC(=CC1=O)C2=O [17-AAG (Tanespimycin)]	inactive: 1.22
CCC(C)C(NC(=O)C(C(C)CC)N(C)C(C)=O)C(=O)NC(C(=O)NC(CC(C)C)C(=O)C1(C)CO1)C(C)O (centres undefined) [Epoxomicin]	active: -7.37

Structure (SMILES)	nuclei number (z-score)
Cc1cccc(N(C)C(=S)Oc2ccc3ccccc3c2)c1 [Tolnaftate]	inactive: -1.16
O=c1[nH]c(=O)n([C@H]2C[C@H](O)[C@@H](CO)O2)cc1I [Idoxuridine]	inactive: 0.394
CN1CCN(c2ccc3nc(-c4c(N)c5c(F)cccc5[nH]c4=O)[nH]c3c2)CC1 [Dovitinib (TKI258) Lactate]	active: -5.19
CN1CCN(c2ccc3nc(-c4c(N)c5c(F)cccc5[nH]c4=O)[nH]c3c2)CC1 [Dovitinib (TKI-258) Dilactic Acid]	active: -7.78
CN1CCN(c2ccc3nc(-c4c(N)c5c(F)cccc5[nH]c4=O)[nH]c3c2)CC1 [Dovitinib (TKI-258_ CHIR-258)]	inactive: -1.28
CCCCc1oc2ccccc2c1C(=O)c1cc(I)c(OCCN(CC)CC)c(I)c1 [Amiodarone HCl]	inactive: -0.941
O=C(O)c1cccnc1 [Nicotinic Acid]	inactive: 0.843
COc1cc2c(NC3CCN(CC4CCCCC4)CC3)nc(N3CCCN(C(C)C)CC3)nc2cc1OCCCN1CCCCC1	active: -5.04
COc1ccc(-c2ccc3cc(C(=O)O)ccc3c2)cc1C12CC3CC(CC(C3)C1)C2 [Adapalene]	inactive: 0.0314
CCN1CCCC1CNC(=O)c1cc(S(N)(=O)=O)ccc1OC (centres undefined) [Sulpiride]	inactive: -0.225
CC1(C)C=C(CN2C/C(=C\c3ccc(F)cc3)C(=O)/C(=C/c3ccc(F)cc3)C2)C(C)(C)N1O	inactive: -0.0464
NNC(=O)c1ccncc1 [Isoniazid]	inactive: 2.53
O=C(O)CCCN1CCC(O[C@@H](c2ccc(Cl)cc2)c2ccccn2)CC1 [Bepotastine Besilate]	inactive: -0.198
O=C(Nc1ncc(SCCN2CCCC2)s1)[C@]1(c2ccc(S(=O)(=O)C3CC3)cc2)C[C@H]1C1CCCCC1	active: -8.67
C[C@H]1C[C@H]2[C@@H]3CCC4=CC(=O)C=C[C@]4(C)[C@H]3C(=O)C[C@]2(C)[C@@]1(O)C(=O)CO [Meprednisone]	inactive: 0.716
CCC(=O)OCC(=O)[C@@]1(OC(=O)CC)[C@@H](C)C[C@H]2[C@@H]3CCC4=CC(=O)C=C[C@]4(C)[C@@]3(F)[C@@H](O)C[C@@]21C [Betamethasone Dipropionate]	inactive: 0.534
Cc1ccc(S(=O)(=O)OCC(=O)Nc2ccc(C(=O)O)c(O)c2)cc1	inactive: 0.733
COc1ccc(-c2cc(=O)c3c(OC)c(OC)c(OC)c(OC)c3o2)cc1OC [Nobiletin]	inactive: -1
Cc1ccc(C(=O)Nc2cccc(C(F)(F)F)c2)cc1Nc1nc(-c2cccnc2)nc2c1cnn2C	inactive: 0.173
CCOC(=O)N1c2ccc(C(F)(F)F)cc2[C@@H](N(Cc2cc(C(F)(F)F)cc(C(F)(F)F)c2)C(=O)OC)C[C@H]1CC [Torcetrapib]	inactive: -0.822
O=c1cc[nH]c(=O)[nH]1 [Uracil]	inactive: -0.0218
CO[C@H]1C[C@@H]2CC[C@@H](C)[C@@](O)(O2)C(=O)C(=O)N2CCCC[C@H]2C(=O)O[C@H]([C@H](C)C[C@@H]2CC[C@@H](OC(=O)C(C)(CO)CO)[C@H](OC)C2)CC(=O)[C@H](C)/C=C(\C)[C@@H](O)[C@@H](OC)C(=O)[C@H](C)C[C@H](C)/C=C/C=C/C=C/1C	inactive: 0.0362
CCC[C@@H]1C[C@@H](C(=O)N[C@@H]([C@H]2O[C@H](SC)[C@H](O)[C@@H](O)[C@H]2O)[C@@H](C)O)N(C)C1 [Lincomycin HCl]	inactive: -0.176

Structure (SMILES)	nuclei number (z-score)
N#Cc1c(Oc2ccc(F)c(NC(=O)Cc3cccc(C(F)(F)F)c3)c2)ccc2nc(NC(=O)C3CC3)sc12	inactive: 0.625
O=C(O)c1ccc(C=C2SC(=S)N(c3cccc(C(F)(F)F)c3)C2=O)cc1	inactive: 1.06
COc1ccc(-c2cc(=O)c3c(OC)c(OC)c(OC)c(OC)c3o2)cc1 [Tangeretin]	inactive: 0.388
Cc1ccc(CNc2ncnc3ccc(-c4ccc(CO)o4)cc23)o1	inactive: 2.07
CN1C(C(=O)Nc2ccccn2)=C(O)c2sc(Cl)cc2S1(=O)=O [Lornoxicam]	inactive: -0.339
CC12CC3CC(C)(C1)CC(N)(C3)C2 [Memantine HCl]	inactive: -0.66
Cc1cc(C)nc(NS(=O)(=O)c2ccc(NC(=S)NC(=O)COc3ccc(Br)cc3Cl)cc2)n1	inactive: 0.605
O=C(Nc1cccnc1)N1CCC(Cc2cccc(Oc3ccc(C(F)(F)F)cn3)c2)CC1	inactive: 3.42
Cc1cccc(-c2nn3c(c2-c2ccnc4ccc(C(N)=O)cc24)CCC3)n1	inactive: 5.02
CC(C)c1nc(CN(C)C(=O)N[C@@H](CCN2CCOCC2)C(=O)N[C@H](CC[C@H](Cc2ccccc2)NC(=O)OCc2cncs2)Cc2ccccc2)cs1 [Cobicistat (GS-9350)]	inactive: 0.157
Cc1ccc(Sc2cncc3sc(C(N)=O)cc23)cc1	inactive: 6.98
Nc1cc(C(F)(F)F)c(-c2cc(N3CCOCC3)nc(N3CCOCC3)n2)cn1 [BKM120 (NVP-BKM120_ Buparlisib)]	inactive: -1.29
Cc1c(C(=O)Nc2ccc(N3C[C@@H](C)O[C@@H](C)C3)nc2)cccc1-c1ccc(OC(F)(F)F)cc1 [LDE225 (NVP-LDE225_Erismodegib)]	inactive: -0.616
Cc1cnc(NC(=O)Nc2cc(Br)c(C)cc2OC[C@@H]2CNCCO2)cn1	inactive: 0.00471
CCOC(N)=O [Urethane]	inactive: 6.95
COc1cccc(-c2cc(F)ccc2C2Cc3nc(N)nc(C)c3C(=O)N2)n1 (centres undefined)	active: -4.57
O=c1cc(N2CCOCC2)oc2c(-c3ccccc3)cccc12	inactive: 0.17
O=C1c2cccc(O)c2C(=O)c2c(O)cccc21 [Danthron]	inactive: 0.103
COc1cc(Nc2ncc3c(n2)-c2ccc(Cl)cc2C(c2c(F)cccc2OC)=NC3)ccc1C(=O)O [Alisertib (MLN8237)]	active: -3.31
CCCCC(=O)N(Cc1ccc(-c2ccccc2-c2nnn[nH]2)cc1)[C@H](C(=O)O)C(C)C [Valsartan]	inactive: 1.6
CCc1ccc(/C=C2/SC(=S)NC2=O)cc1	inactive: 2.72
Cc1ccc(Nc2nccc(N(C)c3ccc4c(C)n(C)nc4c3)n2)cc1S(N)(=O)=O [Pazopanib]	inactive: 1.17
Cc1ccc(Nc2nccc(N(C)c3ccc4c(C)n(C)nc4c3)n2)cc1S(N)(=O)=O	inactive: -0.0132
